The record followed here is PMC7054686.

Protein sequences, listed by entry. Tags and fused reporters are not part of them. Lines headed by an entry give the natural chain unless they say otherwise; changes in a name come on top. Residues count along the entry.
UniProt O14763, residues 56-440: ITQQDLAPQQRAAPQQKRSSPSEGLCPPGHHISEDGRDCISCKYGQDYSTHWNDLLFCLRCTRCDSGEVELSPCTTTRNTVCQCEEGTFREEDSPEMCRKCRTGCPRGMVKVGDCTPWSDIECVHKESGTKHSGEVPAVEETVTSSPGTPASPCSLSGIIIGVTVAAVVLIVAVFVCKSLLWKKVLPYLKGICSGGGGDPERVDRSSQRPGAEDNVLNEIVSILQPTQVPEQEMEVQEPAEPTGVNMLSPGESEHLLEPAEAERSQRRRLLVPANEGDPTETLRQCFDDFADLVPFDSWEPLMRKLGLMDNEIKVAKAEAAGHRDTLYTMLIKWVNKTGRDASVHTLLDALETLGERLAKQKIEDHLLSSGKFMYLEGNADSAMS
UniProt Q13158: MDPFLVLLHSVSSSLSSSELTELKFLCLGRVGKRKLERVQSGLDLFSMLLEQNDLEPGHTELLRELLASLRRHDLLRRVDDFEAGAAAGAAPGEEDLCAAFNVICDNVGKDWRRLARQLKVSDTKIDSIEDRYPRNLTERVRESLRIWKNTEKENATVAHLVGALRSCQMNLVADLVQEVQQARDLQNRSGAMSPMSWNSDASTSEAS

No constants are given. Whether binding was seen depends on the method and setting. Binding seen in cells or lysates may run through a third protein. Some entries that bind do so weakly or less than the wild type.

This experiment addresses TRAIL‐R2 (human (endogenous in A549, HCT116, DU145, PC3, U20S, HAP1)) (UniProt O14763). Briefly: co-IP; TRAIL-R2 DISC IP: 75 μl Dynabeads coated with AMG655 (anti-TRAIL-R2; 1×, 2× or 4×) added to 5 × 10^6 cells for the indicated time (30-180 min, HAP1 up to 9 h); lysis in DISC IP buffer (0.2% NP-40, 20 mM Tris-HCl pH 7.4, 150 mM NaCl, 10% glycerol), five washes, Western blot; also after zVAD-fmk, caspase-8 or FLIP siRNA, MS-275, CASP10 or CFLAR knock-out.

With “FADD (Fas‐associated protein with death domain) (from UniProt Q13158 1-208)”, the binding entry is “binds”.
In the case of “Flag‐tagged FADD (WT) (from UniProt Q13158 1-208)”, the binding entry was “binds”.
On to “Flag‐tagged FADD with point mutation at His9 (H9G) (from UniProt Q13158 1-208)”, for which the binding result is reported as “no binding”.
To “Flag‐tagged FADD with point mutation at Phe25 (F25A) (from UniProt Q13158 1-208)” belongs “no binding”.
